{"source": "the RNAGym collection of RNA variant scans (doi:10.1073/pnas.2313332121)", "parents": {"B1": {"name": "TPR 5TU (parent)", "chain": "GGAUCUUCUCGAUCUAACAAAAAAGACAAAUCUGCCACAAAGCUUGAGAGCAUCUUCGGAUGCAGAGGCGGCAGCCUUCGGUGGCGCGAUAGCGCCAACGUUCUCAACUAUGACACGCAAAACGCGUGCUCCGUUGAAUGGAGUUUAUCAUG"}}, "note": "Variants at the floor of the assay are shown more often than the library holds them.", "data": [{"variants_of": "B1", "experiment": "polymerase ribozyme fitness, log enrichment relative to wild type (log ratio); higher = more active; in vitro selection for triplet polymerase activity", "outline": "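For each subunit of a heterodimeric triplet polymerase ribozyme, a mutant library was built by PCR and transcribed, then taken through a single in vitro selection round in triplicate. Selection involved annealing to a biotinylated primer, the partner subunit and triplets, incubation frozen at −7 °C, gel excision of extended constructs, capture on streptavidin beads and RT-PCR. Genotypes were retained after Illumina sequencing of inputs and outputs only with ≥10 input reads and ≥1 read in each output. Fitness is defined as the logarithm of a genotype's enrichment relative to wild-type enrichment, using inverse-variance-weighted averages across replicates, with the logarithm taken to base 2.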", "values": [{"variant": "A28C A37U A40C G59C A115U", "polymerase ribozyme fitness (log ratio)": "≤ -4.2"}, {"variant": "C27U G62A G70U C87G C131A G140C A150G", "polymerase ribozyme fitness (log ratio)": "≤ -4.2"}, {"variant": "C27U A40G U45A A64C G84A A97U G133A", "polymerase ribozyme fitness (log ratio)": "≤ -4.2"}, {"variant": "A28C C75U C85U A91U G128A", "polymerase ribozyme fitness (log ratio)": "≤ -4.2"}, {"variant": "C27G C95A G141C", "polymerase ribozyme fitness (log ratio)": -3.77}, {"variant": "C27U C72U G88A G94A G152A", "polymerase ribozyme fitness (log ratio)": -4.19}, {"variant": "C27U C54U G58A A106G", "polymerase ribozyme fitness (log ratio)": -0.532}, {"variant": "C27G G59U C69U A73G U145G", "polymerase ribozyme fitness (log ratio)": "≤ -4.2"}, {"variant": "C27G G50A C118A", "polymerase ribozyme fitness (log ratio)": "≤ -4.2"}, {"variant": "A28G U45C C69U C96U", "polymerase ribozyme fitness (log ratio)": "≤ -4.2"}, {"variant": "C27U C87G C118U G141C C149G", "polymerase ribozyme fitness (log ratio)": "≤ -4.2"}, {"variant": "C27G U55G A73C G84A G86A C95G", "polymerase ribozyme fitness (log ratio)": "≤ -4.2"}, {"variant": "A28C G67A C75U U82C G128U", "polymerase ribozyme fitness (log ratio)": "≤ -4.2"}, {"variant": "A28G U33A C87G G117U G136C", "polymerase ribozyme fitness (log ratio)": "≤ -4.2"}, {"variant": "C27U C35U G46A G80A C85A C103G A122G G133C U148C", "polymerase ribozyme fitness (log ratio)": "≤ -4.2"}, {"variant": "C27U C38A U82G C114A A142U", "polymerase ribozyme fitness (log ratio)": "≤ -4.2"}, {"variant": "C27G C57G C63G C93A", "polymerase ribozyme fitness (log ratio)": "≤ -4.2"}, {"variant": "A28U A37C U55A A106C U134G G140A", "polymerase ribozyme fitness (log ratio)": "≤ -4.2"}, {"variant": "A28C A37G A41C C57G A73U", "polymerase ribozyme fitness (log ratio)": "≤ -4.2"}, {"variant": "A28C G84U A97C", "polymerase ribozyme fitness (log ratio)": "≤ -4.2"}, {"variant": "C27U A39U A52G C87U U102G C108A A122G", "polymerase ribozyme fitness (log ratio)": "≤ -4.2"}, {"variant": "A28C C54A C95A C105U U145A", "polymerase ribozyme fitness (log ratio)": "≤ -4.2"}, {"variant": "A28G U53A U56A G67C U145G", "polymerase ribozyme fitness (log ratio)": "≤ -4.2"}, {"variant": "A28G G50U C51U G59C U77A U144A", "polymerase ribozyme fitness (log ratio)": "≤ -4.2"}, {"variant": "C27G G81C C95G G140U U146A", "polymerase ribozyme fitness (log ratio)": "≤ -4.2"}, {"variant": "C27G C76U G83U A115U C116A G140U U145G", "polymerase ribozyme fitness (log ratio)": "≤ -4.2"}, {"variant": "C27G G59U C63A G65C U78A G88U", "polymerase ribozyme fitness (log ratio)": "≤ -4.2"}, {"variant": "A28C A121U", "polymerase ribozyme fitness (log ratio)": "≤ -4.2"}, {"variant": "A28C G34U U53A C105G A147C", "polymerase ribozyme fitness (log ratio)": "≤ -4.2"}, {"variant": "A28C G50A U56C", "polymerase ribozyme fitness (log ratio)": "≤ -4.2"}, {"variant": "A28G A29U A37C C85A G141C", "polymerase ribozyme fitness (log ratio)": "≤ -4.2"}, {"variant": "C27U A52C U56C C75U C96U C105U", "polymerase ribozyme fitness (log ratio)": "≤ -4.2"}, {"variant": "C27U C95U", "polymerase ribozyme fitness (log ratio)": -2.39}, {"variant": "A28G A29U A89C G141C", "polymerase ribozyme fitness (log ratio)": "≤ -4.2"}, {"variant": "C27U G50U U55A C96A A110G G133U", "polymerase ribozyme fitness (log ratio)": -3.94}, {"variant": "A28U A40U G50U C87U U111G", "polymerase ribozyme fitness (log ratio)": "≤ -4.2"}, {"variant": "C27U U31G U55G G94C A113C", "polymerase ribozyme fitness (log ratio)": "≤ -4.2"}, {"variant": "C27G U77G G84U U135G", "polymerase ribozyme fitness (log ratio)": "≤ -4.2"}, {"variant": "C27U C79G G86A G94A C131U U146G", "polymerase ribozyme fitness (log ratio)": "≤ -4.2"}, {"variant": "A28C A52U C87U", "polymerase ribozyme fitness (log ratio)": "≤ -4.2"}, {"variant": "A28C A40U U45A U61A", "polymerase ribozyme fitness (log ratio)": "≤ -4.2"}, {"variant": "C27U U31C G34C C75A G86C A91U", "polymerase ribozyme fitness (log ratio)": "≤ -4.2"}, {"variant": "A28C U82G G88C G152A", "polymerase ribozyme fitness (log ratio)": "≤ -4.2"}, {"variant": "A28G G34A G83C C118G", "polymerase ribozyme fitness (log ratio)": "≤ -4.2"}, {"variant": "A28G U53A", "polymerase ribozyme fitness (log ratio)": -3.62}, {"variant": "A28U A30G C38U G117A", "polymerase ribozyme fitness (log ratio)": "≤ -4.2"}, {"variant": "C27U C51G", "polymerase ribozyme fitness (log ratio)": -3.3}, {"variant": "C27U C85U", "polymerase ribozyme fitness (log ratio)": -2.83}, {"variant": "A28C C38U G48C C54A A60U C76A C93G G140U", "polymerase ribozyme fitness (log ratio)": "≤ -4.2"}, {"variant": "A28G C93U C118A", "polymerase ribozyme fitness (log ratio)": "≤ -4.2"}, {"variant": "A28G A40U G62A C63G C108A G128U", "polymerase ribozyme fitness (log ratio)": "≤ -4.2"}, {"variant": "C27U A41C G81U C96A", "polymerase ribozyme fitness (log ratio)": -2.31}, {"variant": "C27G C116U", "polymerase ribozyme fitness (log ratio)": "≤ -4.2"}, {"variant": "A28G A52C G84A C99G", "polymerase ribozyme fitness (log ratio)": "≤ -4.2"}, {"variant": "C27U U33G G42C U44A G59C C93A G94U", "polymerase ribozyme fitness (log ratio)": "≤ -4.2"}, {"variant": "A28C U55A G58A G81A", "polymerase ribozyme fitness (log ratio)": "≤ -4.2"}, {"variant": "A28G U56A G59U G92C C108A", "polymerase ribozyme fitness (log ratio)": "≤ -4.2"}, {"variant": "C27U G65U A121G G141U U148G", "polymerase ribozyme fitness (log ratio)": "≤ -4.2"}, {"variant": "A28U A40U A49G G88U A91U G92U A113G U148A", "polymerase ribozyme fitness (log ratio)": "≤ -4.2"}, {"variant": "A28C C43U C76G A110G A138U", "polymerase ribozyme fitness (log ratio)": "≤ -4.2"}, {"variant": "C27U C43A G70A A73G C85U A98C G143C U146C", "polymerase ribozyme fitness (log ratio)": "≤ -4.2"}, {"variant": "A28C C35U U61A G124C", "polymerase ribozyme fitness (log ratio)": "≤ -4.2"}, {"variant": "A28G A41C A52G C87U U90A", "polymerase ribozyme fitness (log ratio)": "≤ -4.2"}, {"variant": "A28G G68C C87U U90G C116A G117A G128C G133U U139A G143A", "polymerase ribozyme fitness (log ratio)": "≤ -4.2"}, {"variant": "C27U U44G U56A G58C U61A G86U U135C", "polymerase ribozyme fitness (log ratio)": "≤ -4.2"}, {"variant": "A28C C54A U82A", "polymerase ribozyme fitness (log ratio)": "≤ -4.2"}, {"variant": "C27U A60U", "polymerase ribozyme fitness (log ratio)": -1.43}, {"variant": "C27U A47G C93A", "polymerase ribozyme fitness (log ratio)": -4.19}, {"variant": "C27U U33G C96U G126A G143C U151G", "polymerase ribozyme fitness (log ratio)": "≤ -4.2"}, {"variant": "A28U A41G U82A G83C C87A C108U G143U", "polymerase ribozyme fitness (log ratio)": "≤ -4.2"}, {"variant": "A28C U56A C72U C76G", "polymerase ribozyme fitness (log ratio)": "≤ -4.2"}, {"variant": "A28U A39G G67U C75A", "polymerase ribozyme fitness (log ratio)": "≤ -4.2"}, {"variant": "C27U C76G U127A", "polymerase ribozyme fitness (log ratio)": "≤ -4.2"}, {"variant": "A28C G81C C87A A120U G126A", "polymerase ribozyme fitness (log ratio)": "≤ -4.2"}, {"variant": "A28G A60C G67U C85U U90C C108A C131A G140U A150G", "polymerase ribozyme fitness (log ratio)": "≤ -4.2"}, {"variant": "C27U G86U C99G", "polymerase ribozyme fitness (log ratio)": "≤ -4.2"}, {"variant": "C27U C32U A47U C85G A150C", "polymerase ribozyme fitness (log ratio)": "≤ -4.2"}, {"variant": "A28C C76U C85U G88C C99G", "polymerase ribozyme fitness (log ratio)": "≤ -4.2"}, {"variant": "C27U C118U", "polymerase ribozyme fitness (log ratio)": -1.44}, {"variant": "C27U G68U A107G G124U", "polymerase ribozyme fitness (log ratio)": "≤ -4.2"}, {"variant": "C27U C43G C76G G88C G126A", "polymerase ribozyme fitness (log ratio)": "≤ -4.2"}, {"variant": "A28C C69U", "polymerase ribozyme fitness (log ratio)": "≤ -4.2"}, {"variant": "C27U C76U G83A", "polymerase ribozyme fitness (log ratio)": -1.55}, {"variant": "C27G C75G C93A C103G U134A", "polymerase ribozyme fitness (log ratio)": "≤ -4.2"}]}]}
